According to PubChem BioAssay AID1159614 (National Center for Advancing Translational Sciences (NCATS), 2016):
About 65 (0.1%) of roughly 45,000 compounds were called active. Calls follow the shape of the dose curve; as a rule, active = well fitted activation curve with a large enough effect; inconclusive = small, poorly fitted or top-dose-only effect; inactive = no such curve, though single readings can be large or run the other way. The list shows a part of the results.

target: Galactocerebrosidase (Homo sapiens) (UniProt P54803); assay: A Novel Cell-Based Assay to Identify Small Molecules for B -Galactocerebrosidase; settings: 145M-Twi-hGALC-G270D cells (Twitcher mouse brain line with human GALC G270D), HMU-beta-Gal fluorescence, 48 h; series mostly up to 57.5 µM; activation: at the top concentration; also: 0% is about no effect; nearly all actives have a fitted effect of over 65% in size
Chain of UniProt P54803 (P54803 whole entry, looked up): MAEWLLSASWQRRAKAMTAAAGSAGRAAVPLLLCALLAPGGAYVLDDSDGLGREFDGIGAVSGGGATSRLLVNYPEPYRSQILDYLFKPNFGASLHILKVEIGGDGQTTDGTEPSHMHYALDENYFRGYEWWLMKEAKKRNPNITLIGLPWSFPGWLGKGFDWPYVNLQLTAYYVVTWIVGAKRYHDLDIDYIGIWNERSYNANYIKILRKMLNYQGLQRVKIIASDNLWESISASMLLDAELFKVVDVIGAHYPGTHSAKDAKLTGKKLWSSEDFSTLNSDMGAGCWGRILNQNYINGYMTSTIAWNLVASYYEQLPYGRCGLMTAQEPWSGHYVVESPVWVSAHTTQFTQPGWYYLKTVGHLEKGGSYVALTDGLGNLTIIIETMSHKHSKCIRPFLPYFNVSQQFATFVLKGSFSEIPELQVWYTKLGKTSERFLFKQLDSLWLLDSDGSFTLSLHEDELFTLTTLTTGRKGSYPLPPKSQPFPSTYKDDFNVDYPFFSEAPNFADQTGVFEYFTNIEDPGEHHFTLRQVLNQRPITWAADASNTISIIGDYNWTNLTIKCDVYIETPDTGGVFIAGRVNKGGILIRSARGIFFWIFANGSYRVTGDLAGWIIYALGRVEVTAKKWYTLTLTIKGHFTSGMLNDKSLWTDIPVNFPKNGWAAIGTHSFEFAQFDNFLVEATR
Summary of the method: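 Mutant human GALC (G270D), stably expressed in a Twitcher mouse brain cell line lacking endogenous GALC, is measured in live-treated cells via 6-hexadecanoylamino-4-methylumbelliferyl-β-galactoside hydrolysis (0.1 mM final, pH 5.2) with fluorescent detection.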

activation, inactive:
COc1cc(C2C=C(C(=O)O)Nc3ncnn32)ccc1O (stereo unspecified) -7.2%, CCOc1ccc2c(c1)c(=O)c(C(=O)c1ccc(CC)cc1)cn2CC(=O)Nc1ccc2c(c1)OCCO2 -13.3%, COC(=O)c1c(C)oc2ccc(N(C(=O)c3ccncc3)S(=O)(=O)c3ccc(Br)cc3)cc12 -10.9%, COc1ccc(CNC(=O)c2nn(C)c3c2CSc2ccccc2-3)cc1 -0.576%, COc1ccc(CNS(=O)(=O)c2ccc(-c3cc(C(F)(F)F)on3)s2)cc1OC -27.4%, O=C(Nc1cccc(F)c1)c1cnc2sc(N3CCCC3)nn2c1=O -8.3%, COc1ccc(-c2csc(-c3c(N)c(C(=O)c4ccc(OC)c(OC)c4)n4ccccc34)n2)cc1 -2.46%, CCN1CCc2c(sc(-n3cccc3)c2C(C)NC(=O)Nc2ccc(C(=O)OC)cc2)C1 (stereo unspecified) -16.2%, COc1ccc(C)c2sc(N(Cc3cccnc3)C(=O)c3cccs3)nc12 -2.92%, Cc1ccc(NC(=O)Cn2cc3c(n2)CCCC3)cc1Cl -5.25%, CCN1CCN(C(=O)N[C@@H](C(=O)N[C@@H]2C(=O)N3C(C(=O)O)=C(CSc4nnnn4C)CS[C@H]23)c2ccc(O)cc2)C(=O)C1=O -12.3%, COc1ccc(N(C)S(=O)(=O)c2ccc3c(c2)CCN3C(=O)CCC(=O)O)cc1 -14.8%, CCOC(=O)c1ccc(N2C(=O)c3n[nH]c(-c4ccco4)c3C2c2ccccc2OC)cc1 (stereo unspecified) -15.1%, Cc1ccc(NC(=O)Cn2c(=O)n(Cc3ccccc3)c(=O)c3c(C)c(C(=O)N(C)C)sc32)c(C)c1 -12.3%, COc1ccc(NC(=O)c2ccco2)cc1NC(=O)c1ccccc1[N+](=O)[O-] -10.6%, CCc1cccc(C)c1Nc1nn2c(=O)c3ccccc3nc2s1 -13.7%, Cn1c(SCc2ccc(F)cc2)nc2ccc(C(=O)NCc3cccc(Cl)c3)cc21 -11.8%, Cc1ccc(N(Cc2cccs2)C(=O)c2ccc(OC(C)C)cc2)cc1 -12%, COc1ccc2c(CNC3CCC(C)CC3)c(C(=O)O)n(Cc3ccc(F)cc3)c2c1 (stereo unspecified) -6.05%, COc1cccc(OCCSc2nc3ccccc3n2CC(=O)N2CCOCC2)c1 1.38%, CCOc1ccccc1C(=O)NCc1ccc2c(c1)CCN2C(=O)c1ccc(F)cc1 -0.249%, Cc1cc(=O)n2nc(N3CCC(C(=O)Nc4ccc(Br)c(C)c4)CC3)sc2n1 -15.6%, O=S1(=O)OC(c2ccc(O)cc2)(c2ccc(O)cc2)c2ccccc21 -7.33%, COCCNC(=O)c1ccc(Cn2c(SCC(N)=O)nc3ccccc3c2=O)cc1 3.21%, COc1cc2nc(NCCc3cccc(C)c3)n3nc(-c4ccccc4)nc3c2cc1OC -4.44%, COc1ccc(C2CC(=O)Nc3c2c(C)nn3-c2nncc(-c3ccccc3)n2)c(OC)c1OC (stereo unspecified) -7.96%, CCOC(=O)c1cnc2c(ccc3ccccc32)c1Nc1ccccc1O -22.5%, CCOC(=O)c1cccc(NC(=O)COc2ccc3c(C)cc(=O)oc3c2)c1 -9.3%, Cc1ccc(C(=O)NCCc2csc(-c3cccc(F)c3)n2)cc1C -14.9%, COc1ccc(-c2noc(CN(C(=O)c3ccc(C)cc3C)C(C)C)n2)cc1 -33.3%, CCOC(=O)c1ccccc1NC(=O)CSc1ccc(-c2sc(C)nc2C)nn1 -13.4%, CCN(C(=O)c1c(C)oc2ncnc(N3CCCCC3)c12)c1cc(C)ccc1C -7.14%, COc1ccccc1/C=C/c1nc(C#N)c(NCc2ccccc2)o1 -2.76%, COc1ccc(-c2cn3c(n2)sc2cc(C(=O)NCCc4ccccc4)ccc23)cc1 3.48%, O=C(OCc1cc(=O)n2nc(C3CC3)sc2n1)c1cccc(NC(=O)c2ccccc2Cl)c1 -15.9%, Cc1ccc(C)c(NC(=O)c2cnc(N3CCCC3)nc2C)c1 -12.4%, CCC(=O)N1CCCc2cc(S(=O)(=O)N3CCC(C(=O)NC4CCC(C)CC4)CC3)ccc21 (stereo unspecified) -4.85%, Cc1cc(C)cc(NC(=O)NCc2noc3ccccc23)c1 -19.4%, CCOc1ccccc1C(=O)Nc1cccc(-c2nc3ccccc3s2)c1 -20.2%, COCCOC(=O)C1=C(C)NC(C)=C(C(=O)OC/C=C/c2ccccc2)C1c1cccc([N+](=O)[O-])c1 (stereo unspecified) -12.7%, O=C(Cc1ccc(Cl)cc1)NC1CC(=O)N(c2ccc3c(c2)OCCO3)C1 (stereo unspecified) -6.19%, Cc1cccc(CNC(=O)C2CCN(c3nn4cc(-c5ccc(F)cc5)nc4s3)CC2)c1 -5.55%, COc1ccc(-n2ncc(C(=O)NCc3cccs3)c2C2CCN(C(=O)OC(C)(C)C)CC2)cc1 -5.38%, CCc1ccccc1N(CC)C(=O)c1cc2c(s1)-c1ccccc1SC2 2.3%, CCc1nnc(NC(=O)c2nc(SCc3cccc(C)c3)ncc2Cl)s1 -6.02%, O=S(=O)(c1ccccc1)n1nc(-c2ccco2)nc1NCc1ccccc1 -5.49%, CCCCNc1ccc(C(=O)OCCOCCOCCOCCOCCOCCOCCOCCOCCOC)cc1 -21.8%, CCC(Sc1nnc(-c2ccc(F)cc2)c(-c2ccc(F)cc2)n1)C(=O)NC1CCCC1 (stereo unspecified) -14.4%, CCOc1ccc(-c2cn3c(n2)sc2cc(C(=O)NC(C)C45CC6CC(CC(C6)C4)C5)ccc23)cc1 (stereo unspecified) -5.13%, CCOc1ccc(C(c2c(O)cc(C)n(Cc3ccco3)c2=O)N2CCN(C)CC2)cc1 (stereo unspecified) -24.4%, CC1CCN(C(=O)Cn2cc(SCC(=O)NCc3ccccc3)c3ccccc32)CC1 3.43%, O=C(CSc1nc2c([nH]c3ccccc32)c(=O)n1-c1ccccc1F)Nc1cccc(Cl)c1 -12.9%, CCC(=O)N1CCc2cc(S(=O)(=O)CCC(=O)Nc3cc(Cl)ccc3OC)ccc21 -14%, COc1cccc(N2CC(NC(=O)/C=C\c3ccccc3)CC2=O)c1 (stereo unspecified) -3.67%, CC(Nc1oc(-c2ccc(COc3ccccc3)o2)nc1C#N)c1ccccc1 (stereo unspecified) -21.3%, Cc1cccc(-n2ncc3c(NCCOCCO)ncnc32)c1 -7.25%, CCOc1ccc(CNC(=O)c2cc3c(=O)oc4ccc(C)cc4c3s2)cc1 -11.6%, Cc1ccccc1CNCCCSc1nnnn1C -7.57%, Cc1ccc(NC(=O)CSCc2cc(=O)c3ccccc3[nH]2)c(C)c1 10.6%, COc1ccc(C2C(C(=O)Nc3ccccc3)=C(C)Nc3nc(-c4ccc(Cl)cc4)nn32)cc1 (stereo unspecified) -17.3%, Cc1cccc(Cn2c(CN3CCC(C(=O)NC(C)C)CC3)cc3ccccc32)c1 -19.4%
